Assay results published in publication PMC9911399, “Two distinct binding modes provide the RNA-binding protein RbFox with extraordinary sequence specificity”.
Numbering of substitutions follows the chain as printed; changes in the protein carry UniProt numbers. Some of the results follow.

T1: RBFOX1 RRM (Homo sapiens, UniProt Q9NWB1 109-208)
T1 sequence: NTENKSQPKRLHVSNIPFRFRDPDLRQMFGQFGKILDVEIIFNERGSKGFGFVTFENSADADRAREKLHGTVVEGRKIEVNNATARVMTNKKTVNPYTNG

B1: GGUCGUU (DNA:RNA)
RNA: GGGAGACCGGAAUUCAGAUUGUCCGGUCGUUUUAAAUCCCGUCGUAGCCACCA
DNA 1: CAATCTGAATTCCGGTCTCCC
DNA 2: TGGTGGCTACGACGGGATT
B2: ACAAUCG (DNA:RNA)
RNA: GGGAGACCGGAAUUCAGAUUGUCCACAAUCGUUAAAUCCCGUCGUAGCCACCA
DNA 1: CAATCTGAATTCCGGTCTCCC
DNA 2: TGGTGGCTACGACGGGATT
B3: GCUUCGA (DNA:RNA)
RNA: B1 RNA with G26C, C28U, G29C, U30G, U31A
DNA 1: CAATCTGAATTCCGGTCTCCC
DNA 2: TGGTGGCTACGACGGGATT
B4: AACUAAC (DNA:RNA)
RNA: B2 RNA with C26A, A27C, A28U, U29A, C30A, G31C
DNA 1: CAATCTGAATTCCGGTCTCCC
DNA 2: TGGTGGCTACGACGGGATT
B5: UUUUUUU (DNA:RNA)
RNA: B1 RNA with G25U, G26U, C28U, G29U
DNA 1: CAATCTGAATTCCGGTCTCCC
DNA 2: TGGTGGCTACGACGGGATT
B6: GAGUUUA (DNA:RNA)
RNA: B1 RNA with G26A, U27G, C28U, G29U, U31A
DNA 1: CAATCTGAATTCCGGTCTCCC
DNA 2: TGGTGGCTACGACGGGATT
B7: CGUAGCU (DNA:RNA)
RNA: B1 RNA with G25C, C28A, U30C
DNA 1: CAATCTGAATTCCGGTCTCCC
DNA 2: TGGTGGCTACGACGGGATT
B8: CUAACAC (DNA:RNA)
RNA: B2 RNA with A25C, C26U, U29C, C30A, G31C
DNA 1: CAATCTGAATTCCGGTCTCCC
DNA 2: TGGTGGCTACGACGGGATT
B9: CAUUAUU (DNA:RNA)
RNA: B1 RNA with G25C, G26A, C28U, G29A
DNA 1: CAATCTGAATTCCGGTCTCCC
DNA 2: TGGTGGCTACGACGGGATT
B10: AAUUGGU (DNA:RNA)
RNA: B1 RNA with G25A, G26A, C28U, U30G
DNA 1: CAATCTGAATTCCGGTCTCCC
DNA 2: TGGTGGCTACGACGGGATT
B11: GUUCCUU (DNA:RNA)
RNA: B1 RNA with G26U, G29C
DNA 1: CAATCTGAATTCCGGTCTCCC
DNA 2: TGGTGGCTACGACGGGATT
B12: AGGCGCG (DNA:RNA)
RNA: B2 RNA with C26G, A27G, A28C, U29G
DNA 1: CAATCTGAATTCCGGTCTCCC
DNA 2: TGGTGGCTACGACGGGATT
B13: AUGUACU (DNA:RNA)
RNA: B2 RNA with C26U, A27G, A28U, U29A, G31U
DNA 1: CAATCTGAATTCCGGTCTCCC
DNA 2: TGGTGGCTACGACGGGATT
B14: GCACCCU (DNA:RNA)
RNA: B2 RNA with A25G, A28C, U29C, G31U
DNA 1: CAATCTGAATTCCGGTCTCCC
DNA 2: TGGTGGCTACGACGGGATT
B15: GUAUGAG (DNA:RNA)
RNA: B2 RNA with A25G, C26U, A28U, U29G, C30A
DNA 1: CAATCTGAATTCCGGTCTCCC
DNA 2: TGGTGGCTACGACGGGATT
B16: AAAGAAU (DNA:RNA)
RNA: B2 RNA with C26A, A28G, U29A, C30A, G31U
DNA 1: CAATCTGAATTCCGGTCTCCC
DNA 2: TGGTGGCTACGACGGGATT
B17: UAGUGGG (DNA:RNA)
RNA: B2 RNA with A25U, C26A, A27G, A28U, U29G, C30G
DNA 1: CAATCTGAATTCCGGTCTCCC
DNA 2: TGGTGGCTACGACGGGATT
B18: GUGGCCC (DNA:RNA)
RNA: B2 RNA with A25G, C26U, A27G, A28G, U29C, G31C
DNA 1: CAATCTGAATTCCGGTCTCCC
DNA 2: TGGTGGCTACGACGGGATT
B19: CAUCACG (DNA:RNA)
RNA: B2 RNA with A25C, C26A, A27U, A28C, U29A
DNA 1: CAATCTGAATTCCGGTCTCCC
DNA 2: TGGTGGCTACGACGGGATT
B20: CCAUGAG (DNA:RNA)
RNA: B2 RNA with A25C, A28U, U29G, C30A
DNA 1: CAATCTGAATTCCGGTCTCCC
DNA 2: TGGTGGCTACGACGGGATT
B21: CGUGAUU (DNA:RNA)
RNA: B1 RNA with G25C, C28G, G29A
DNA 1: CAATCTGAATTCCGGTCTCCC
DNA 2: TGGTGGCTACGACGGGATT
B22: ACAAGUA (DNA:RNA)
RNA: B2 RNA with U29G, C30U, G31A
DNA 1: CAATCTGAATTCCGGTCTCCC
DNA 2: TGGTGGCTACGACGGGATT
B23: UCCUAGA (DNA:RNA)
RNA: B2 RNA with A25U, A27C, A28U, U29A, C30G, G31A
DNA 1: CAATCTGAATTCCGGTCTCCC
DNA 2: TGGTGGCTACGACGGGATT
B24: UGCUUCA (DNA:RNA)
RNA: B2 RNA with A25U, C26G, A27C, A28U, G31A
DNA 1: CAATCTGAATTCCGGTCTCCC
DNA 2: TGGTGGCTACGACGGGATT
B25: UGAGGUG (DNA:RNA)
RNA: B1 RNA with G25U, U27A, C28G, U31G
DNA 1: CAATCTGAATTCCGGTCTCCC
DNA 2: TGGTGGCTACGACGGGATT
B26: UUAGGUU (DNA:RNA)
RNA: B1 RNA with G25U, G26U, U27A, C28G
DNA 1: CAATCTGAATTCCGGTCTCCC
DNA 2: TGGTGGCTACGACGGGATT
B27: CGCGAAC (DNA:RNA)
RNA: B1 RNA with G25C, U27C, C28G, G29A, U30A, U31C
DNA 1: CAATCTGAATTCCGGTCTCCC
DNA 2: TGGTGGCTACGACGGGATT
B28: ACUACUG (DNA:RNA)
RNA: B2 RNA with A27U, U29C, C30U
DNA 1: CAATCTGAATTCCGGTCTCCC
DNA 2: TGGTGGCTACGACGGGATT
B29: CUCCGUC (DNA:RNA)
RNA: B1 RNA with G25C, G26U, U27C, U31C
DNA 1: CAATCTGAATTCCGGTCTCCC
DNA 2: TGGTGGCTACGACGGGATT
B30: AGGGCCA (DNA:RNA)
RNA: B2 RNA with C26G, A27G, A28G, U29C, G31A
DNA 1: CAATCTGAATTCCGGTCTCCC
DNA 2: TGGTGGCTACGACGGGATT
B31: GAUCCGG (DNA:RNA)
RNA: B1 RNA with G26A, G29C, U30G, U31G
DNA 1: CAATCTGAATTCCGGTCTCCC
DNA 2: TGGTGGCTACGACGGGATT

target: T1, RBFOX1 RRM; test: EMSA; HiTS-Eq, 1 nM pool, 10 min; buffer printed only for the single-RNA assays: 10 mM Tris pH 7.5, 150 mM NaCl, 3.4 mM EDTA, 0.001% NP-40, 30 C; settings: tags: His6 N-terminal (pET28a); label: 5' 32P
Method in brief: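 A pool of RNA with 7 randomized nucleotides, 5′-radiolabelled and with DNA-annealed flanks, was equilibrated at 1 nM for 10 min in 50 µL with purified RbFox RRM, wild type or mutant, across increasing protein concentrations. Free RNA was separated by 8% native PAGE, excised, reverse-transcribed, barcoded by PCR and sequenced. Relative association constants were obtained from read-count changes of each RNA species versus the control reaction and normalised to the cognate motif.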

Row | Binder | binding signal
1 | B1 | 0.0109 KA relative to UGCAUGU
2 | B2 | 0.000509 KA relative to UGCAUGU
3 | B3 | 0.0205 KA relative to UGCAUGU
4 | B4 | 0.00138 KA relative to UGCAUGU
5 | B5 | 0.0186 KA relative to UGCAUGU
6 | B6 | 0.00687 KA relative to UGCAUGU
7 | B7 | 0.00923 KA relative to UGCAUGU
8 | B8 | 0.00387 KA relative to UGCAUGU
9 | B9 | 0.00131 KA relative to UGCAUGU
10 | B10 | 0.0103 KA relative to UGCAUGU
11 | B11 | 0.0123 KA relative to UGCAUGU
12 | B12 | 0.0195 KA relative to UGCAUGU
13 | B13 | 0.00502 KA relative to UGCAUGU
14 | B14 | 0.00773 KA relative to UGCAUGU
15 | B15 | 0.0141 KA relative to UGCAUGU
16 | B16 | 0.00495 KA relative to UGCAUGU

Row | Binder | binding signal
17 | B17 | 0.00819 KA relative to UGCAUGU
18 | B18 | 0.0179 KA relative to UGCAUGU
19 | B19 | 0.00351 KA relative to UGCAUGU
20 | B20 | 0.0109 KA relative to UGCAUGU
21 | B21 | 0.00971 KA relative to UGCAUGU
22 | B22 | 0.000377 KA relative to UGCAUGU
23 | B23 | 0.01 KA relative to UGCAUGU
24 | B24 | 0.0113 KA relative to UGCAUGU
25 | B25 | 0.0201 KA relative to UGCAUGU
26 | B26 | 0.0151 KA relative to UGCAUGU
27 | B27 | 0.0117 KA relative to UGCAUGU
28 | B28 | 0.00616 KA relative to UGCAUGU
29 | B29 | 0.00995 KA relative to UGCAUGU
30 | B30 | 0.018 KA relative to UGCAUGU
31 | B31 | 0.00499 KA relative to UGCAUGU
